# Measurements published in article PMC6466672.
# Results are given in words; binding and its absence hold for the method and conditions named. For some of these results: In cells and extracts the contact can be indirect. Tags and fused reporters may be left off the sequences shown. Some binding calls cover weakened binding; strength is not graded here.
# Assays:
# [1] = biological target: T1, Swi1 fused to Gal4 DNA-binding domain (S. pombe) (UniProt Q9UUM2); experiment: two-hybrid; S. cerevisiae Y190 reporter strain; Gal4-DBD (pAS404) and Gal4-AD (pGAD424) fusions; growth in the presence of 3-aminotriazole (25 mM in the screen)
# T1 sequence: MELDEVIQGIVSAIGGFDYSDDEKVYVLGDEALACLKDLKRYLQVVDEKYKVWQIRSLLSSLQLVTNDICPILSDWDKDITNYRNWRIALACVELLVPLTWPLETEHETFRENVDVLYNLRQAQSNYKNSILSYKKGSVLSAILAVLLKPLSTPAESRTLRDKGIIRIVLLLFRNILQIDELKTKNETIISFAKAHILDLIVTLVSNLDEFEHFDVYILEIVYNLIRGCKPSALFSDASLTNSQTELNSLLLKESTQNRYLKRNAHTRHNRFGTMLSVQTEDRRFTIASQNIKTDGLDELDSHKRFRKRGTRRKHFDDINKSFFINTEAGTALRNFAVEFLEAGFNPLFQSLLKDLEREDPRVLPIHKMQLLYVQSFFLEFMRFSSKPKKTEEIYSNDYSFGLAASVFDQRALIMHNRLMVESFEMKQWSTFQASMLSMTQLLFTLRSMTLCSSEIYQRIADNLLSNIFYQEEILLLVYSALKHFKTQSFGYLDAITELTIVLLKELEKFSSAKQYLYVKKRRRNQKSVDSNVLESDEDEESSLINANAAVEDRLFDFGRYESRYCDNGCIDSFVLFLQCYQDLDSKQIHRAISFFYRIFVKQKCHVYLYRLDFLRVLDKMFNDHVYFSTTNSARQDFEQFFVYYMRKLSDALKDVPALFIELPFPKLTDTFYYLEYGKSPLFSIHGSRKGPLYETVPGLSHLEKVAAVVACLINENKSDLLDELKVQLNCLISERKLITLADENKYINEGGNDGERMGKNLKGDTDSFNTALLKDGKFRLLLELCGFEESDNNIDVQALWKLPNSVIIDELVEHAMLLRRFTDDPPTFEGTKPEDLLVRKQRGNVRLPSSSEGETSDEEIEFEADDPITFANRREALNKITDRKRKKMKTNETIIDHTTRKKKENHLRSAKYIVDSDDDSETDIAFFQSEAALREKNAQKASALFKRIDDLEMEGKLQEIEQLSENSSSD
# GST-Swi1 (S. pombe) = biological target: T2, GST-Swi1 (S. pombe) (UniProt Q9UUM2); experiment: pull-down; Glutathione Sepharose 4B beads bound to GST fusions mixed with His6-Vid21CT in buffer A (50 mM Tris-HCl pH 8.0, 150 mM NaCl, 0.1% NP-40, 10% glycerol, 5 mM EDTA), 1 h at 4 °C; washed three times with buffer A and once with 500 mM NaCl; Western blot with anti-GST and anti-hexahistidine; both …
# T2 sequence: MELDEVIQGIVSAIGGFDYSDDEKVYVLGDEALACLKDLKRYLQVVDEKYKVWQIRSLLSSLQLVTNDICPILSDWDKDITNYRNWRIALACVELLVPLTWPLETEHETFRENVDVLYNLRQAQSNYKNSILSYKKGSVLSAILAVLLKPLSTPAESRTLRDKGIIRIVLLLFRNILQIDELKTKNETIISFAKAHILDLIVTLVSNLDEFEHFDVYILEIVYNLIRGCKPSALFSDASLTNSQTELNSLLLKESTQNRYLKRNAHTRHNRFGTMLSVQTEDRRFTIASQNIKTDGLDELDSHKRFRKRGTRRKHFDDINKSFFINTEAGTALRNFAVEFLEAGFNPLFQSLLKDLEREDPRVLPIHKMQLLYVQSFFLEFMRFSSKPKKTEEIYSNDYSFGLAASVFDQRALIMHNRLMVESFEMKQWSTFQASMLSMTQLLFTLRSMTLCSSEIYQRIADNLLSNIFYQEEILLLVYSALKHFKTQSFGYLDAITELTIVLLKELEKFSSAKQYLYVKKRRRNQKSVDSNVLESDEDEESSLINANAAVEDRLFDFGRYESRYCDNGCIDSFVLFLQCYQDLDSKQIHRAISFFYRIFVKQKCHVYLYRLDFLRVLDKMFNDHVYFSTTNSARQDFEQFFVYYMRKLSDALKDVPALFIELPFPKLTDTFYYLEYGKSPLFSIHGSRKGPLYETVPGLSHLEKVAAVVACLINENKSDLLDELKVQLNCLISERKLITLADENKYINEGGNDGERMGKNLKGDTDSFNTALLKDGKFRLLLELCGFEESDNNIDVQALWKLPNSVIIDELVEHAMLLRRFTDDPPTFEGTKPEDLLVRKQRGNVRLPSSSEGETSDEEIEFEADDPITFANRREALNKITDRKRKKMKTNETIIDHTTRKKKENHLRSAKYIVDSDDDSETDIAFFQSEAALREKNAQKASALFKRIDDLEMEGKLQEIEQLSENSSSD
# GST-Swi3 (S. pombe) = biological target: T3, GST-Swi3 (S. pombe) (UniProt O14350); experiment: as above
# T3 sequence: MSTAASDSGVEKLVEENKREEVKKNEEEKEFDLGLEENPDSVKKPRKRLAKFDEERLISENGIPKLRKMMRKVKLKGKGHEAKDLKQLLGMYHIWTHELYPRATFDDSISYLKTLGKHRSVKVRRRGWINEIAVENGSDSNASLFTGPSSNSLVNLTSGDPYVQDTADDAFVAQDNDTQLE
# [2] = biological target: T4, Swi1 expressed as epitope-tagged protein in S. pombe cells (S. pombe) (UniProt Q9UUM2); experiment: co-IP; immunoprecipitation of Vid21 and Swi1 expressed as epitope-tagged proteins in S. pombe cells; no data shown
# T4 sequence: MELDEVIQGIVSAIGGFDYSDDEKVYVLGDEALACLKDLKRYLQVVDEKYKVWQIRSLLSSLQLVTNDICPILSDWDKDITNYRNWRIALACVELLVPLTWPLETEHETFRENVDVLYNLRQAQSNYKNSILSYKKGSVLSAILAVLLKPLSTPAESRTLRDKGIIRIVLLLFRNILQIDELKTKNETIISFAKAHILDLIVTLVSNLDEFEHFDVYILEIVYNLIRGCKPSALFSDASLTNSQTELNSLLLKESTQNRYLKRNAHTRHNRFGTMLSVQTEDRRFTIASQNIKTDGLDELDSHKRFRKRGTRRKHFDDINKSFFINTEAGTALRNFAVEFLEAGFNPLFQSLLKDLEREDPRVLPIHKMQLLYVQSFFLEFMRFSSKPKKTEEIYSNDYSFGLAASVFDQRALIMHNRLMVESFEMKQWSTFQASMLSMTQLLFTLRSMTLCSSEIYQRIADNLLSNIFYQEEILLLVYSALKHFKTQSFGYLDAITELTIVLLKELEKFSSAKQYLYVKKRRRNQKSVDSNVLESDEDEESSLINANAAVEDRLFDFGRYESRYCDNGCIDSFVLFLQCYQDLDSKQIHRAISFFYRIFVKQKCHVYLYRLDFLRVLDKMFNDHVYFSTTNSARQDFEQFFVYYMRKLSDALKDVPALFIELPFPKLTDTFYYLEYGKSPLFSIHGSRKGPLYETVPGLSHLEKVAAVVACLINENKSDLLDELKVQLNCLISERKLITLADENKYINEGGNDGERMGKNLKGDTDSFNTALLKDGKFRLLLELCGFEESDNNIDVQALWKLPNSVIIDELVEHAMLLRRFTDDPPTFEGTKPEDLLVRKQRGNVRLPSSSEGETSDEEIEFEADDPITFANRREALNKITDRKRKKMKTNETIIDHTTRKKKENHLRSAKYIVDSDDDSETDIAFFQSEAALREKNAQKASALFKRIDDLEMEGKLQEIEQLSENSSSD
binder,measurement,setting,value
"Swi3-AD (protein, UniProt O14350 1-181) MSTAASDSGVEKLVEENKREEVKKNEEEKEFDLGLEENPDSVKKPRKRLAKFDEERLISENGIPKLRKMMRKVKLKGKGHEAKDLKQLLGMYHIWTHELYPRATFDDSISYLKTLGKHRSVKVRRRGWINEIAVENGSDSNASLFTGPSSNSLVNLTSGDPYVQDTADDAFVAQDNDTQLE",binding,[1],binds
"His6-Vid21_(593-985) (domain or fragment, UniProt O59773 593-985) FSDDIFVTTNSEQIQNCVLNVPMYGPPTENNEYCEEISEKYPITPVSRFAYAKTKLKSTCAKASRKRLFNQLELSPPESFMEKKARSDENQLDGNKIKDDNQKLSSVGTFSVRPPYPPSSKDIRPEAPWLPEEDELLLLLLRRYSFNWEFVASRLTPPGLYIPLAEKRTAWDCFERWIQVDPRAANVQLTGSHARLAQQKLDESLRHSDKVSQHLSLRDEGTPNHLIKHNSYFLLPTVSRHYRPITIFEAIRKILKKREFAKKPTMTKRAIAPSAASTEKLPPVPSPLELSRLKSEREAQIQQIQAQRNFAQLQSQNRALRPQNAAVAAGAQQHNQQLAAFQAVAASQNSSNNSSAGVSPIAGRMVPRLQPYAVSSSLKLTPEQIHQLQQRKQ",binding,GST-Swi1 (S. pombe),binds
same,binding,GST-Swi3 (S. pombe),binds
"Vid21 expressed as epitope-tagged protein in S. pombe cells (protein, UniProt O59773 1-994) MKQKETKTSQIALVDGEKLSITDSFASLFTLDEEEENDSVDNEEIKLTKEKHEKLLLLFWLHCKFPNGLEWLHSSSDLLPEQVSEWFNFYQKYRFKRGRNFNLSARESVTPIVEEPIVPEEPDNLEGVSEETPLKETSLELSEEEIITSKSPIPSPETIHKNIDVEEKETIEPTTPVKEVETTAHAEEEKGPLTPDSEYAARQLTEELANKSSQEEGVDKQLRVVEATEKEHEEDGNEENVTVTKPVEVATDQVESKEVKKKEVSETTEPTAPPVTVAEVLEIEDKVPKVDEVEEVHSPEAKVTENDVENVQSGIDIEKTIQLLNNQEIPSEQQIISVDKATESPVQEVAVDVNEKPVDEIVEPSKLQMENKLPSEKSPTIDRTGVEAPLFELSVSMPLTLIPPSKFSEPVKPELSSEAWLLRTEMSPLHLRLKNAHKYVLSDNWSHAYREEIVRQSLHHLTVAKEKGIWSFRQPKRQNEMPRLKTHRDYVLDEMQWMSIDFSQERKWKIILAHRMANWVMDYHQASDKCTVCTPASLSKNKKPYMQENEHQKDSHEETFNEQIVSHFNLNDNNNNKVLSIPRDSLQFYNAVFSDDIFVTTNSEQIQNCVLNVPMYGPPTENNEYCEEISEKYPITPVSRFAYAKTKLKSTCAKASRKRLFNQLELSPPESFMEKKARSDENQLDGNKIKDDNQKLSSVGTFSVRPPYPPSSKDIRPEAPWLPEEDELLLLLLRRYSFNWEFVASRLTPPGLYIPLAEKRTAWDCFERWIQVDPRAANVQLTGSHARLAQQKLDESLRHSDKVSQHLSLRDEGTPNHLIKHNSYFLLPTVSRHYRPITIFEAIRKILKKREFAKKPTMTKRAIAPSAASTEKLPPVPSPLELSRLKSEREAQIQQIQAQRNFAQLQSQNRALRPQNAAVAAGAQQHNQQLAAFQAVAASQNSSNNSSAGVSPIAGRMVPRLQPYAVSSSLKLTPEQIHQLQQRKQTVPTTERTQ",binding,[2],no binding
